Article PMC8117158, “Structural Basis of RICs Iron Donation for Iron-Sulfur Cluster Biogenesis” (Frontiers in Microbiology, 2021)

Biological target: T1, IscS^C–GFP (E. coli K-12, UniProt P0A6B7 1-404)
T1 construct: IscS, cysteine desulfurase, E. coli K-12, gene amplified from genomic DNA; source: E. coli BL21(DE3) Gold, co-transformed (pMRBAD-link-C-GFP), in cells; not shown: C-GFP fragment of GFP, C-terminal, kept
T1 sequence (looked up): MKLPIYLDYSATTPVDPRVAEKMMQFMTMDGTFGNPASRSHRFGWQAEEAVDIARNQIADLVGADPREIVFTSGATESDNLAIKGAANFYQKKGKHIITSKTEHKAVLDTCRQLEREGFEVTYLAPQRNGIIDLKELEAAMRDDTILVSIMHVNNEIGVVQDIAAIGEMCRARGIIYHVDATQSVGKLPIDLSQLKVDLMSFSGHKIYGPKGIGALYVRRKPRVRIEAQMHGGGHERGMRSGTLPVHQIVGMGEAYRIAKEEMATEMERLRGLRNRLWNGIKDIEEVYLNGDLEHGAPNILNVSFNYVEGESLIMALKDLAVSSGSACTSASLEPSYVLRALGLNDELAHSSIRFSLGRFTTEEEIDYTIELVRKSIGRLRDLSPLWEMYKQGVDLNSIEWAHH
Experiment: split reporter (BiFC, NanoBiT); BiFC by reconstitution of GFP from N-GFP and C-GFP fusions co-expressed in E. coli BL21(DE3) Gold; fluorescence microscopy of cells on agarose slides, normalised to empty vectors
Settings: partners not purified

B1: IscU^N–GFP (natural protein, E. coli K-12, UniProt P0ACD4 1-128, looked up)
chain: MAYSEKVIDHYENPRNVGSFDNNDENVGSGMVGAPACGDVMKLQIKVNDEGIIEDARFKTYGCGSAIASSSLVTEWVKGKSLDEAQAIKNTDIAEELELPPVKIHCSILAEDAIKAAIADYKSKREAK
notes: IscU, E. coli K-12, gene amplified from genomic DNA; source: E. coli BL21(DE3) Gold, co-transformed (pET11a-link-N-GFP), in cells; not shown: N-GFP fragment of GFP, N-terminal, kept
- fold fluorescence over the control: 3 fold
